Laboratory results taken from PubChem BioAssay AID463173 (ICCB-Longwood Screening Facility, Harvard Medical School, 2010).
Among all 52,000 compounds or so, about 4,300 (8.3%) were called active. Rule as the data show it: active = survival mostly below about 52% (no sharp cut-off); inactive = mostly above about 56%. The list shows a part of the results.

test system: DeltatarO mutant; assay: S. aureus survival, RN4220 and DeltatarO strains – OD600, teichoic acid synthesis inhibitors, primary screen (AID 463173); settings: S. aureus RN4220 wild type/DeltatarO growth, OD600, 18 h, active compounds read low, screened at 18.75 µg/mL (by protocol)

SMILES | survival
COc1ccc(C(=O)NCc2nnnn2-c2ccc(C)c(C)c2)cc1 | inactive: 64%
COc1ccc(Cl)c(Cn2c(NCCN)nc3c2c(=O)n(C)c(=O)n3C)c1 | active: 56%
Cc1ccc(Cl)cc1NC(=O)Cn1nc2c(cc1=O)CC(C)CC2 (stereo not drawn) | inactive: 69%
CCOc1ccc(NC(=O)CN2C(=O)COc3ccc(S(=O)(=O)Nc4ccccc4)cc32)cc1 | inactive: 76%
COc1ccc(C(=O)Nc2ccc3nc4n(c(=O)c3c2)CCCCC4)cc1OC | inactive: 91%
CCCCc1nn2c(=O)cc(COC(=O)c3ccccc3NC(=O)C(C)(C)C)nc2s1 | inactive: 86%
Cc1cc(NS(=O)(=O)c2ccc(NC(=O)COc3ccc(Br)cc3C)cc2)no1 | active: 32%
Cc1[nH]c(=O)[nH]c(=O)c1C1N2CC3(C(C)C)CN1CC(C(C)C)(C2)C3=O (stereo not drawn) | inactive: 82%
CCOC(=O)c1ccc(NC(=O)CN2C(=O)c3cccnc3Oc3ccc(Cl)cc32)cc1 | inactive: 78%
Cc1ccc(N2CCn3c2nc2c3c(=O)n(CCc3ccccc3)c(=O)n2C)cc1C | inactive: 78%
N#Cc1ccc(-c2cccs2)nc1SCc1ccc(Cl)cc1Cl | inactive: 74%
CCOc1ccc(NC(=O)N2CCOc3ccccc32)cc1 | inactive: 84%
CCc1ccccc1NC(=O)CSc1nnc(-c2nonc2NC(C)=O)n1C | inactive: 52%
Cc1ccnc(NC(c2ccccc2F)c2ccc3cccnc3c2O)c1 (stereo not drawn) | active: -1%
Cc1ccc(Cl)cc1Nc1nc2ccccc2n2c(C)nnc12 | inactive: 67%
O=C1NC(c2ccccc2)Oc2ccccc21 (stereo not drawn) | inactive: 111%
CCCOc1ccccc1Cn1c(=O)sc2ccccc21 | active: -2%
COc1ccc(Br)cc1CNC(=O)CCCn1c(=O)c2cccn2c2ccccc21 | active: 39%
Cc1cccc(-c2nnc(-c3ccccc3)o2)c1 | inactive: 63%
CC(C)c1ccc(NC(=O)N2CCCC2C(=O)Nc2ccc(-n3cnnn3)cc2)cc1 (stereo not drawn) | inactive: 100%

SMILES | survival
CCC(C(=O)Nc1cccc(-c2cn3cccnc3n2)c1)c1ccccc1 (stereo not drawn) | inactive: 86%
CCC(Oc1ccccc1F)C(=O)Nc1c(C(=O)c2ccccc2)oc2ccccc12 (stereo not drawn) | inactive: 53%
CC(C)(C)OC(=O)N1CCC(c2c(C(=O)NCc3ccc4c(c3)OCO4)cnn2-c2ccc(F)cc2F)CC1 | inactive: 83%
O=C(Nc1ccc(Cl)cc1)C1CCN(c2nc3ccccc3n3cccc23)CC1 | inactive: 77%
Cc1ccn2c(c1)nc(=O)c1cc(S(=O)(=O)N3CCC(C)CC3)c(Cl)cc12 | inactive: 87%
CCCCN(C)CCNC(=O)c1cc(-c2cccnc2)nc2ccc(S(=O)(=O)N3CCC(C)CC3)cc12 | inactive: 80%
O=C(COc1ccccc1F)Nc1ccc(C(=O)OCc2cc(=O)n3nc(C4CC4)sc3n2)cc1 | inactive: 109%
CCc1ccc(-n2c(C)nnc2SCc2nc(-c3ccc(OC)cc3)no2)cc1 | inactive: 68%
Cc1ccc(-c2cc3ncc(C(=O)c4cc([N+](=O)[O-])ccc4O)cn3n2)cc1 | active: 8%
Cc1ccc(NC(=O)CCSCCc2ccccn2)cc1 | inactive: 93%
COc1ccc2cc(CN(Cc3nnnn3Cc3ccccc3)C3CCCC3)c(=O)[nH]c2c1 | inactive: 96%
COc1cccc(CC(NC(C)=O)C(=O)NC2CCN(c3nc(C)cc(C)n3)CC2)c1OC (stereo not drawn) | inactive: 88%
Cc1ccccc1CNC(=O)c1ccc(-n2c(C)cc3c2CCCC3)cc1 | inactive: 79%
COc1ccccc1CNC(=O)C1CCN(Cc2nc(-c3ccc(OC)c(OC)c3)oc2C)CC1 | inactive: 128%
CC(=O)NS(=O)(=O)c1ccc(NC(=O)c2ccco2)cc1 | inactive: 72%
CN(C)c1ccc(C(CNS(=O)(=O)c2ccc(Cl)cc2)N2CCCC2)cc1 (stereo not drawn) | active: 0%
CC1=C(C(=O)Nc2ccc(C)cc2C)C(c2ccccc2C)n2ncnc2N1 (stereo not drawn) | inactive: 100%
Cc1cccc(-c2nc3c(C#N)c[nH]n3c2NC2CCCCC2)c1 | inactive: 46%
COc1cc(C(=O)NCC(c2cccnc2)N2CCN(c3ccc(F)cc3)CC2)cc(OC)c1OC (stereo not drawn) | inactive: 82%
Cc1nn(-c2ccc3nncn3n2)c(C)c1CCC(=O)Nc1ccc(OC(F)(F)F)cc1 | inactive: 82%

SMILES | survival
COc1cc(NC(=O)c2noc3c2CCc2ccccc2-3)cc(OC)c1OC | inactive: 88%
CCCN(CCC)C(=O)Cn1c(=O)n(Cc2ccc(C(=O)NCCc3ccc(OC)c(OC)c3)cc2)c(=O)c2ccccc21 | inactive: 116%
CCCN(C(=O)c1cc2c(Cl)nc3ccccc3c2s1)c1cccc(C)c1 | active: 31%
COCCNC(=O)c1ccc(Cn2c(SCC(=O)NC(C)C)nc3ccccc3c2=O)cc1 | inactive: 92%
CCOc1cc(CNc2ccc(O)cc2)cc(Br)c1OCc1ccccc1 | active: 3%
Cc1ccc(OCCn2c(-c3ccc(Cl)cc3)nc3ccccc3c2=O)c(C)c1 | inactive: 63%
CCOc1cccc(C2c3c(oc4ccccc4c3=O)C(=O)N2c2nc(C)c(C(=O)OC)s2)c1 (stereo not drawn) | inactive: 51%
O=C(Nc1nnc(S(=O)(=O)N2CCCc3ccccc32)s1)c1ccccc1Br | active: 17%
OC(COCc1ccccc1)CN1CCCC1 (stereo not drawn) | inactive: 113%
CCOc1ccccc1N(C)C(=O)c1nn(-c2ccc(C)cc2)c(=O)c2c1c1ccccc1n2C | inactive: 119%
COc1ccc(-c2cc3nc(C4CCN(C(=O)OC(C)(C)C)CC4)c(C(=O)Nc4cc(Cl)cc(Cl)c4)cn3n2)cc1 | inactive: 67%
COc1ccc(CNC(=O)c2ccc3c(c2)N(Cc2ccccc2)C(=O)c2ccccc2S3(=O)=O)cc1 | inactive: 83%
COc1ccc(-n2c(SCC(=O)N3CCC(C)CC3)nc3c([nH]c4ccccc43)c2=O)cc1 | inactive: 70%
CCc1nnc(SCC(=O)Nc2ccc3c(c2)OCO3)n1CC1CCCO1 (stereo not drawn) | inactive: 66%
COc1ccc(OC)c(NC(=O)c2csnn2)c1 | inactive: 72%
COCCCNC(=O)c1cc(-c2cccnc2)nc2ccccc12 | inactive: 112%
CCOc1ccccc1-c1nnc(SCc2ccc(Cl)cc2)o1 | active: -1%
CCC(=O)N1c2ccccc2CC1C(=O)NCCCN1CCN(c2ccccc2)CC1 (stereo not drawn) | inactive: 74%
